The full ranking holds about 33,000 sequences; the median of “E-score (-0.5 to 0.5)” is about -0.032, and the highest 2% start at about 0.36. The list shows a part of the results.
Target: T1, Sko1 (UniProt Q02100)
T1 sequence: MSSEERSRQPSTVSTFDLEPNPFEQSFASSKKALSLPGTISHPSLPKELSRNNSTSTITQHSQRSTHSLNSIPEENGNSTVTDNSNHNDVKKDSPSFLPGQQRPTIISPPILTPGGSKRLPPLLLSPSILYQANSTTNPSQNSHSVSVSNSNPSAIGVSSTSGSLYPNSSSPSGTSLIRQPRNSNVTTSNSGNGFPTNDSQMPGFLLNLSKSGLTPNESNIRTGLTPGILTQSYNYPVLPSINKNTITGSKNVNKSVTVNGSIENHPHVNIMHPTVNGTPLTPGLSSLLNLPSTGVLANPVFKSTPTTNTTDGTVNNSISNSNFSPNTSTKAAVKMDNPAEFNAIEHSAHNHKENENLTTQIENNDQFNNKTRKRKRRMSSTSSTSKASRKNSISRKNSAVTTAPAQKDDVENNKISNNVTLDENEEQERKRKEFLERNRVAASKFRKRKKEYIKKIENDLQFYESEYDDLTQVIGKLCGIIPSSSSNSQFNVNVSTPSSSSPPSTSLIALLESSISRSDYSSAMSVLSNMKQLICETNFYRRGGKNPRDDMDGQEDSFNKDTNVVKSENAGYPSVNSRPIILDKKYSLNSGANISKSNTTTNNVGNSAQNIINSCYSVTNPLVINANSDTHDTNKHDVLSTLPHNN
Assay: PBM E-score (8-mer binding enrichment) (E-score (-0.5 to 0.5)); higher = stronger / more preferred TF binding; most listed sequences are background and not binding sites
Details: protein concentration: 200 nM; construct: GST-full length
Summary of the method: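 PURExpress in vitro transcription/translation supplied GST-tagged yeast transcription factors, either full-length or DNA-binding domain. Applied at about 100-200 nM to universal all-10-mer Agilent arrays double-stranded by primer extension, the bound protein was detected with fluorescent anti-GST. E-scores, modified Wilcoxon-Mann-Whitney statistics, were given by the Universal PBM Analysis Suite to ungapped eight-base words pooled with their reverse complements after masliner normalisation.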

| Sequence | PBM E-score |
| --- | --- |
| CAGGCACA | -0.0227 |
| CTAGATGA | 0.0866 |
| AGAGGTGC | -0.277 |
| GTAATAAC | 0.319 |
| GAGGTTTA | -0.0725 |
| GTGCTGGA | -0.202 |
| ATGCCGGC | -0.173 |
| ACGCTAAC | 0.13 |
| GCGACCGC | -0.172 |
| GCAAGATA | 0.0422 |
| CCTGTGGA | -0.362 |
| ACCCCGCG | -0.251 |
| GTAGCAGA | 0.124 |
| CCCCCAAC | -0.0878 |
| AAGGAAGC | -0.202 |
| TAGAACCA | 0.0486 |
| GACGCCAC | 0.255 |
| ATCGGACC | -0.227 |
| ATTTAGAG | 0.117 |
| AAGCGTTA | 0.00636 |
| CAATTTGC | -0.0265 |
| GCCCTTCC | -0.252 |
| AGTGAGTC | -0.0481 |
| ACCTCAGT | -0.0574 |
| AGGGTCGA | -0.215 |

| Sequence | PBM E-score |
| --- | --- |
| AGCAGTGA | 0.1 |
| CCTCAAAG | -0.238 |
| ATGGTGGA | -0.213 |
| AACTGTCT | -0.15 |
| CCGTTTAG | -0.134 |
| ATATGCAG | -0.161 |
| GCTGGTCA | -0.204 |
| AGTCTACA | -0.124 |
| AGGGGGCG | -0.381 |
| CAACTGTG | -0.0987 |
| AGTTCAAC | 0.00417 |
| ATACTCAA | 0.13 |
| CATACGAC | 0.261 |
| CTCCAACA | -0.013 |
| CATTAGGC | -0.0503 |
| CATGCCGA | -0.0359 |
| CTCTATAC | -0.151 |
| AGCGCTAA | 0.135 |
| ACCGTTTA | 0.00615 |
| AAGTTAAG | -0.0113 |
| ATTAGTGG | 0.0231 |
| TCTAGAAA | -0.0193 |
| TAATACGA | 0.327 |
| CAATCCCC | -0.112 |
| AGACCTAA | -0.112 |

| Sequence | PBM E-score |
| --- | --- |
| GATATGAC | 0.326 |
| GGACTCCC | -0.288 |
| AAATACAG | -0.03 |
| AATGTGGT | 0.0895 |
| TAACAAGA | -0.0496 |
| AATAACCC | -0.148 |
| CGGACTCA | -0.134 |
| ATGCAGTG | 0.118 |
| AATTCGCT | 0.257 |
| AGCGTGAG | -0.109 |
| AGGGCTTA | -0.0822 |
| ACCTTCCA | 0.0421 |
| ACGACCTA | 0.112 |
| TCACGCAA | 0.384 |
| CGTCACTC | 0.418 |
| AGGGGCTA | -0.209 |
| CGTGCCAA | -0.0406 |
| GAGCTGTA | -0.172 |
| CCCTGTTA | -0.0267 |
| GGCGGCAC | -0.224 |
| AGTGGTGG | -0.0736 |
| AAATAAAT | 0.304 |
| CATGTGCG | 0.125 |
| TATAGATA | 0.0243 |
| CTGGGTCA | -0.128 |

| Sequence | PBM E-score |
| --- | --- |
| ATTCAACG | 0.151 |
| ATTGTAAA | 0.155 |
| ACCTATAC | 0.0679 |
| ATGGACTC | -0.147 |
| GGCCTGCA | -0.325 |
| ATACTTAG | -0.0209 |
| AGTTTTCG | 0.0459 |
| GGGGCAAC | -0.149 |
| CCCTCATA | -0.212 |
| GCATGGGC | -0.189 |
| ATTTCTGA | -0.108 |
| TACCACCA | -0.0735 |
| CTAAACGC | 0.0759 |
| AAGCCCCC | -0.439 |
| ACCGTAAC | -0.135 |
| AGACTAAC | -0.0356 |
| CGGACCAA | -0.0377 |
| GGGAGTTA | -0.113 |
| CGGGTCTC | -0.283 |
| AACCAGAT | -0.071 |
| GTTTCTGA | 0.122 |
| TGCTCGAA | 0.063 |
| CCCTAAAC | -0.0916 |
| CGCGAGCA | -0.197 |
| ATAGAATG | 0.121 |

| Sequence | PBM E-score |
| --- | --- |
| ACCTATCC | -0.141 |
| CATGACTA | 0.0134 |
| AATTAATG | 0.188 |
| AAATTTTC | 0.067 |
| CCTGTTCA | -0.203 |
| ACTTGTGG | -0.0685 |
| CACTTAGC | -0.179 |
| CCCACAAG | -0.155 |
| CAAGGAGC | -0.0662 |
| AAGGATCG | 0.0147 |
| CTGCTACA | -0.0447 |
| CGCGGAGA | -0.0338 |
| AAATGACA | 0.272 |
| ATTCCTGA | -0.0957 |
| TCGACTAA | 0.0754 |
| CCGTGTCA | -0.186 |
| CAAACTTC | 0.116 |
| AGGTACTA | 0.0453 |
| CCCTGGGC | -0.174 |
| TCGAGACA | 0.00957 |
| CCGGGGCC | -0.368 |
| CCCCCCCC | -0.46 |
| AAAACAGC | -0.0494 |
| ATATCCGA | 0.0954 |
| AGTATCCG | -0.131 |

| Sequence | PBM E-score |
| --- | --- |
| ACGGAGTC | -0.0548 |
| CCCCGGTA | -0.165 |
| CACCCCCC | -0.364 |
| TGTCGCAA | 0.0467 |
| AACCCTAG | 0.0089 |
| CACGGACC | -0.209 |
| GTCCGATA | -0.0335 |
| CCGTAGTC | -0.266 |
| GAGGACGC | -0.319 |
| GAATGAGC | 0.0937 |
| GAGCTGGC | -0.222 |
| ATTGTGGC | -0.0131 |
| AAACCTCA | -0.043 |
| AAACGACC | -0.142 |
| ACACAGGA | -0.128 |
| CGTCCAGC | -0.0938 |
| GCATGAGC | -0.136 |
| GCTCCAAA | -0.161 |
| ATCCTATG | -0.0706 |
| AACGAGCA | -0.13 |
| ATTAATAA | 0.168 |
| ATCTCCGG | -0.165 |
| TGAGGGAA | -0.0846 |
| ATTTAAGG | 0.148 |
| AATCATGG | -0.0769 |

| Sequence | PBM E-score |
| --- | --- |
| AATAGTCA | 0.00533 |
| AGCAGGCC | -0.239 |
| CTACGCTA | 0.076 |
| AACGTCTC | 0.111 |
| ATTTCTGG | -0.0124 |
| ATCTCGAA | 0.0474 |
| GGAGGATA | -0.14 |
| CTGTGAGC | 0.0825 |
| TACACGTA | 0.453 |
| CGTCATCA | 0.489 |
| CCCTACAC | -0.0471 |
| AATGAGGT | 0.324 |
| CAACGCAC | 0.173 |
| ATAATAGC | 0.0417 |
| CTAGTCTC | -0.0396 |
| ACGTGAAC | 0.311 |
| CGTGGAAC | -0.0617 |
| ATTGTGGA | 0.0573 |
| CCATTCAG | 0.0407 |
| CAGATGCC | -0.0631 |
| GACGGGGA | -0.183 |
| CGCGGGCC | -0.115 |
